Data as given in publication PMC4336329 (PLoS ONE, 2015).
Among all 310,000 compounds or so, about 2,200 (0.71%) showed an effect of 50% or more. Effects have a minus sign here. The list shows a part of the results.

target: human ether-à-go-go-related gene (hERG) potassium channel (human, UniProt Q12809); assay: primary screen, population patch clamp on CHO cells stably expressing hERG
Sequence (Q12809 whole entry, looked up): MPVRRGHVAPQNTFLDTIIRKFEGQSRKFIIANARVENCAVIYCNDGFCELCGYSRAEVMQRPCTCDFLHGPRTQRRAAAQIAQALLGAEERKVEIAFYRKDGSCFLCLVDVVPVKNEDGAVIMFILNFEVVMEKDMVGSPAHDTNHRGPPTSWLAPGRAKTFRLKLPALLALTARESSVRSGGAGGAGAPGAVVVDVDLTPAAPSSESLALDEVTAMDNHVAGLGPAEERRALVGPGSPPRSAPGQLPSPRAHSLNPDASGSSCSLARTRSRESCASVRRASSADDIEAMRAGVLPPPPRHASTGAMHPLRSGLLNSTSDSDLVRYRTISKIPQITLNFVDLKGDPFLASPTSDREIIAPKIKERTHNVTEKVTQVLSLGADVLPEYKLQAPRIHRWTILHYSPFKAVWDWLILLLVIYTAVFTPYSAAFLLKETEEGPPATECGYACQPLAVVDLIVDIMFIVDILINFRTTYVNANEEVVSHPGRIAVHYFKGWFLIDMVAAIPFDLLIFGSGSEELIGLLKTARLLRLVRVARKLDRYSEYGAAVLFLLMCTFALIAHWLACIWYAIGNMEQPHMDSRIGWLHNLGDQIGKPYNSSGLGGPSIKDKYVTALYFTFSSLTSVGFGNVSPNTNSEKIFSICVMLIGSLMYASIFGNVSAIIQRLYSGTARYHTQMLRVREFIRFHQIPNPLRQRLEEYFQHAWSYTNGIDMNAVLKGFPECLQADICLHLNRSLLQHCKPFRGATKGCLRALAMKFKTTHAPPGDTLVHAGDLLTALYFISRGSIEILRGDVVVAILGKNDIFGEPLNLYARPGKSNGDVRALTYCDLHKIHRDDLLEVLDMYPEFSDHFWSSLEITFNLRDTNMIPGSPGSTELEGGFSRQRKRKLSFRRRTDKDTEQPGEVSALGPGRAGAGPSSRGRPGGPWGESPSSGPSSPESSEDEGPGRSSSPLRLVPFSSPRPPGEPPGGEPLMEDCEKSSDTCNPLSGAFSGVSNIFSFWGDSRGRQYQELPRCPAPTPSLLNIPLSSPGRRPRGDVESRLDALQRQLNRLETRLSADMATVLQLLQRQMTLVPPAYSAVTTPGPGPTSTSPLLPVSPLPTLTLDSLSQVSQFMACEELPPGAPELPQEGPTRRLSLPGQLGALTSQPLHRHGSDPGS

| Compound | hERG current change (%, negative = inhibition) at 1uM [%] |
| --- | --- |
| COc1ccccc1NC(=O)COc1ccc(/C=N/NC(=O)c2cccnc2)cc1 | -0.257 |
| COCCNC(=O)C1CCCN(c2nn3c(=O)cc(C)nc3s2)C1 (stereo not shown) | 5.77 |
| O=C(O)/C(=C\c1ccco1)NC(=O)c1ccccc1 | 11 |
| CCC1(C)CC2(CCCN(CCC(=O)c3ccccc3)C2)CCO1.Cl (stereo not shown) | 7.55 |
| COc1ccc(OC)c(NC(=O)CCNS(=O)(=O)c2cc(Br)cnc2N)c1 | 7.7 |
| CC(C)=CCC12Oc3cc(O)ccc3C1(O)Oc1cc(O)c([C@H]3C=C(C)CC(c4ccc(O)cc4O)[C@H]3C(=O)c3ccc(O)cc3O)c(O)c1C2=O (stereo partly shown) | -0.572 |
| Cc1ccc(C)n1-c1ccccc1N1CCCCC1 | 16.4 |
| O=C(c1csc2c1CCCCC2)N1CCC2(CC1)OCCO2 | 10.9 |
| COc1ccc(CN([C@H](C)CO)S(=O)(=O)N(Cc2ccccc2)[C@H](CO)C(C)C)cc1 | 7.92 |
| O=C(CN1C(=O)NC2(CCCC2)C1=O)Nc1ccc(C(F)(F)F)cc1 | 9.94 |
| O=S(=O)(Nc1ccncc1)c1cc(Cl)ccc1Cl | 15.2 |
| COc1ccc2oc(=O)c(-c3ccccc3C(=O)N3CCOCC3)cc2c1 | 10.7 |
| COc1ccc(-n2nc(C(=O)NCC(=O)Nc3cc(Cl)c(OC)cc3OC)c3ccccc3c2=O)cc1 | 6.43 |
| COc1ccc(CCC(=O)Nc2ccc(Cn3ccnc3)cc2)cc1 | 10.4 |
| COC(=O)c1cc(S(=O)(=O)n2nc(C)cc2C)c(Cl)cc1Cl | 11.9 |
| CC(C)C[C@H]1CN=C(Nc2ccccc2)N1CC1CCCCCC1 | -16.8 |
| O=C(NC1CC2CCCC(C1)N2C(=O)Nc1ccccc1)c1ccncc1 (stereo not shown) | 0.0447 |
| CCOC(=O)c1ccc2ncc(C(=O)OCC)c(NCCCN3CCOCC3)c2c1 | -13.9 |
| O=C1c2ccccc2-c2cccc(C(=O)N3CCN(C(=O)c4ccccc4)CC3)c21 | 3.88 |
| CCCN(CC(=O)Nc1ccccc1C)C(=O)c1ccc2c(c1)S(=O)(=O)N=C1CCCCCN12 | 17.6 |
| CCOc1cccc(CN2CCCC(N3CCN(c4cccc(Cl)c4)CC3)C2)c1O (stereo not shown) | 2.48 |
| COC(=O)c1ccc(NC(=S)Nc2ccccc2)cc1 | 6.03 |
| CCOC(=O)C1=C(CS(=O)(=O)c2ccccc2)NC(=O)NC1c1ccc(O)c(OC)c1 (stereo not shown) | 12.5 |
| COc1ccc(C(C)=O)cc1CN1CC=C(c2ccccc2)CC1 | 0.006 |
| Cc1cc(C(=O)Nc2c(C)n(C)n(-c3ccccc3)c2=O)on1 | 15.2 |
| Cc1nc2c3cc(F)ccc3n(Cc3ccccc3)c2s1 | 15.6 |
| CCC(C(=O)N(C(C)C)C(C)C)c1ccccc1 (stereo not shown) | 10.3 |
| O=C(COC(=O)c1cnccn1)Nc1cccc2ccccc12 | -3.66 |

| Compound | hERG current change (%, negative = inhibition) at 1uM [%] |
| --- | --- |
| COc1cc2c(cc1OC)C(c1ccc(C)o1)CC(=O)N2 (stereo not shown) | -0.622 |
| CCOc1ccccc1CN1CCN(Cc2[nH]c3ccccc3c2C)CC1CCO (stereo not shown) | -13 |
| CC(C(=O)Nc1sc2c(c1C#N)CCCCC2)N1C(=O)c2ccccc2C1=O (stereo not shown) | 6.27 |
| O=C1C=C(NC2CCCC2)CC(c2ccccc2)C1 (stereo not shown) | 18.3 |
| COc1cc2c3nc4n(c(=O)c3n(CC(=O)NCC3CCCO3)c2cc1OC)CCS4 (stereo not shown) | 17.3 |
| CC(=O)NC(CC(=O)N(Cc1ccccc1)c1cccc(C)c1)c1ccccc1 (stereo not shown) | 9.41 |
| Cc1cccc(NC(=O)CCCNC(=O)c2ccc(Cl)cc2)n1 | 13.7 |
| C=CCNC(=O)COc1ccc(Oc2ccccc2)cc1 | 2.66 |
| NC(=O)C1(N2CCCCC2)CCN(C(=O)c2cccn3c(=O)c4cc(Cl)ccc4nc23)CC1 | 4.38 |
| CCOc1ccc(S(=O)(=O)N(C)CC(=O)N2CCCC2)cc1 | 21.7 |
| CCC(CC)NC(=O)c1ccc(NS(=O)(=O)c2ccc3[nH]c(=O)[nH]c3c2)cc1 | 14.4 |
| Cc1ccc(C#N)c(SCc2ccccc2[N+](=O)[O-])n1 | -0.479 |
| CC(=O)N/N=C/c1cc(C(C)C)cc(/C=N/NC(C)=O)c1O | 16.5 |
| CCN1CCN(C(=O)c2cc3cc4ccc(OC)cc4nc3s2)CC1 | 8.74 |
| COc1ccc(NC(C)C(=O)N/N=C/c2ccccc2OCc2ccc(Br)cc2)cc1 (stereo not shown) | 5.73 |
| COc1ccc(C(CNC(=O)COc2ccccc2OC)N2CCCCC2)cc1 (stereo not shown) | 4.66 |
| Cc1cccc(NC(=O)c2cc(-c3c(C)cc(C)cc3O)n[nH]2)c1 | 16.6 |
| CC1=C(C)CC(C(=O)NNC(=O)c2csc(C)c2C)C(C(=O)O)C1 (stereo not shown) | 12.8 |
| CCOc1ccc(Br)cc1C(=O)N/N=C/c1ccccn1 | 0.583 |
| O=C(CC1C(=O)NCCN1CC1CCCCC1)NCc1cc(F)ccc1F (stereo not shown) | 10.2 |
| O=C(C1=NN[C@@H]2C(=O)N(c3ccccc3C(F)(F)F)C(=O)[C@H]12)C(c1ccccc1)c1ccccc1 | 8.32 |
| CCNc1nc(Cl)nc(N(NC(C)=O)C(C)CC)n1 (stereo not shown) | 12.4 |
| COc1ccc(NC(=O)Cc2c(C(=O)O)n(C)c3ccccc23)cc1OC | 13.7 |
| Cc1cccc(NC(=O)c2ccc3nc(N4CCOCC4)sc3c2)c1C | -5.59 |
| O=C(NCc1nnc(SCC(=O)N2CCN(c3ccccc3)CC2)o1)c1c(F)cccc1F | 14.7 |
| COC(=O)CNC(=O)CNC(=O)c1nn(-c2ccc(OC)c(Cl)c2)c(=O)c2ccccc12 | 14.6 |
| O=C(/C=C/c1ccc(Cl)c(Cl)c1)N1CCc2ccccc21 | -2.84 |
